These results are taken from patent US20190062399A1.

This assay has as its target B7 protein (CD80 and/or CD86) on Daudi B cells. Kind of assay: cell-based or functional assay.

Values joined by “and” are separate entries in the source; they are usually repeats but may differ in a detail not shown here. Identical values can stand only once.

B1: CTLA4^A29YL104E-Ig (Fc fusion)
chain: MHVAQPAVVLASSRGIASFVCEYASPGKYTEVRVTVLRQADSQVTEVCAATYMMGNELTFLDDSICTGTSSGNQVNLTIQGLRAMDTGLYICKVELMYPPPYYEGIGNGTQIYVIDPEPCPDSDQ[not shown - human IgG1 Fc with changes]
modifications: here or on the partner: glycosylated: N-linked at Asn102, Asn134, Asn233 (numbering of SEQ ID NO:4); O-linked sites in the hinge
Turning to B1, the EC50, human IL-2 promoter mediated luciferase activity in the in vitro potency bioassay (Jurkat T cells + Daudi B cells + anti-CD3) was 0.0191 µg/mL and 0.0215 µg/mL and 0.0218 µg/mL.
